# Data: PubChem BioAssay AID1347165 (National Center for Advancing Translational Sciences (NCATS), 2019)
# Among all 220,000 compounds or so, about 5,700 (2.6%) were called active. The inconclusive results got no clear call from the source; some entries with a clear call stand among them for comparison. Calls come from the whole dose curve; as a rule, active = well fitted inhibition curve with a large enough effect; inconclusive = small, poorly fitted or top-dose-only effect; inactive = no such curve, though single readings can be large or run the other way. Where the call is inconclusive, the potency comes from a doubtful curve fit.
# Target: Lysine-specific demethylase 5B (Homo sapiens) (UniProt Q9UGL1)
# Assay: Primary screen for KDM5B Histone Demethylases FDH-coupled qHTS; note: nearly all actives have a fitted effect of over 70% in size
# Conditions: FDH-coupled NADH fluorescence (FDH is formaldehyde dehydrogenase); series mostly up to 57.7 µM
# In short: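 Here, H3K4me3 peptide (12.5 µM in substrate mix) is demethylated by KDM5BΔAP, 200 nM final, after 10 min compound exposure. Formaldehyde product is coupled through FDH (0.25 U/mL in mix) to NADH fluorescence; 30-min ΔRFU feeds dose-response curves.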
# Potency is the fitted concentration of half-maximal effect; tags give direction and shape of the fitted curve.
# Sequence of UniProt Q9UGL1 (Q9UGL1 whole entry, looked up): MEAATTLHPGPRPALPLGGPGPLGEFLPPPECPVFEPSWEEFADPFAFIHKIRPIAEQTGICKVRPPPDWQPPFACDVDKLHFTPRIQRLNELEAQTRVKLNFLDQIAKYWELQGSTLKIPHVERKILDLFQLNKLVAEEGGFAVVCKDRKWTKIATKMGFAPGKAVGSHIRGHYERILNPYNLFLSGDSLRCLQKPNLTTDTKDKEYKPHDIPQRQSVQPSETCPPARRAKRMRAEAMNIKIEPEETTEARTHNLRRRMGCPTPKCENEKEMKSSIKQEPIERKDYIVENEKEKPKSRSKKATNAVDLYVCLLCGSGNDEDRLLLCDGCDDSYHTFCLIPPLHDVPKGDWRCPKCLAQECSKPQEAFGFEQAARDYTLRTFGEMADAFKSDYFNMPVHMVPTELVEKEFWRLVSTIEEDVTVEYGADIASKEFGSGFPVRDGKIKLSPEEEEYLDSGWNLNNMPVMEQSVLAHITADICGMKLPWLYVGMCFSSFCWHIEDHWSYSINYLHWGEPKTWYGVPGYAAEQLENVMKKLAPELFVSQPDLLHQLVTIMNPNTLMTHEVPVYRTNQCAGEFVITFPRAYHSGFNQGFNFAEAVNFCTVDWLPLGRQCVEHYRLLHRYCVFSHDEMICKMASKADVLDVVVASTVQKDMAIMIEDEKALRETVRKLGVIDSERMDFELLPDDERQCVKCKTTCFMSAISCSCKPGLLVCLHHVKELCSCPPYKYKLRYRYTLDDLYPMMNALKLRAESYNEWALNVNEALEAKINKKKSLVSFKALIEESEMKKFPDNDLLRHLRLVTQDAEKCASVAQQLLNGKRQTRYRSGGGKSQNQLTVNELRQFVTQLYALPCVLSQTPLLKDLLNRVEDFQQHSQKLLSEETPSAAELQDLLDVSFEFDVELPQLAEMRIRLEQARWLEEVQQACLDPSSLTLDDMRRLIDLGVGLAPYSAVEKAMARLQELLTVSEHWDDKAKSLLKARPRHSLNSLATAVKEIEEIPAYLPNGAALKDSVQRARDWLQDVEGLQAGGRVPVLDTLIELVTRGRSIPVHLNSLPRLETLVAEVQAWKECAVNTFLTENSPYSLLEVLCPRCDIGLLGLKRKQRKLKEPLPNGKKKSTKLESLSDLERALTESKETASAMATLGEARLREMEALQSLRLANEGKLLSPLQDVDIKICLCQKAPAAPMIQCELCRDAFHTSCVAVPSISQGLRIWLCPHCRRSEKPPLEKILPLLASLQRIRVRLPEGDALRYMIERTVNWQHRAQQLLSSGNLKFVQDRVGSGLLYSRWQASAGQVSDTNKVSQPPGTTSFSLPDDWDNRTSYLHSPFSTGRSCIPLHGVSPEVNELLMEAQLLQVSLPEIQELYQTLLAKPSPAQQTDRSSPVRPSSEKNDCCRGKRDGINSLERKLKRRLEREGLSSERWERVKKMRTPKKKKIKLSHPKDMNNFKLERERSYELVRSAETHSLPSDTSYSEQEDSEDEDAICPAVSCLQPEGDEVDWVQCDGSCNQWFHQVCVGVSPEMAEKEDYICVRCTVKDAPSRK
row,SMILES,Potency
1,O=C(c1ccc(-c2ncc3cnc(C4=CCOCC4)cn23)cc1)N1CCc2ccccc2C1,active: 28.2 µM
2,CC(C)N(CCNC(=O)c1nn(Cc2ccccc2)c(=O)c2ccccc12)C(C)C,"inconclusive: 20 µM [inhibitor, partial curve, poor fit]"
3,NC(=O)c1cc(-c2cc(NCc3cccnc3)nc3[nH]ccc23)ccc1F,active: 25.1 µM
4,COc1ccc(C(C)=O)cc1COC(=O)c1ccc(C#N)cc1,inactive
5,Cc1cc(CNC(=O)CC2C=CS(=O)(=O)C2)c2[nH]c(-c3ccccc3)c(C)c2c1 (stereo not drawn),active: 28.2 µM
6,Nc1cccc2c(N)cccc12,"inconclusive: 20 µM [inhibitor, partial curve, poor fit]"
7,CSCC[C@H](NC(=O)[C@@H]1Cc2ccccc2CN1)C(=O)NC[C@H]1CC[C@H](C(=O)O)CC1,"inconclusive: 39.8 µM [inhibitor, single point]"
8,Cc1ccc(F)cc1NC(=O)c1ccc(Cn2nc(N3CCN(c4ccccc4)CC3)ccc2=O)o1,"inconclusive: 31.6 µM [inhibitor, single point]"
9,CN1CCC2(C1)CN(Cc1ccccc1)c1ccc(C(=O)NCCOc3ccccc3)cc12 (stereo not drawn),active: 28.2 µM
10,C=CCNCc1ccccc1OC,inactive
11,CN(C)c1ncc2c(n1)CCCC2NC(=O)CN1C(=O)NC(C)(C)C1=O (stereo not drawn),"inconclusive: 25.1 µM [inhibitor, single point]"
12,CC(C)c1ncc(C(=O)N2CC[C@H](N3CCN(C)CC3)[C@H](CCCO)C2)cn1,"inconclusive: 31.6 µM [inhibitor, single point]"
13,CC(=O)N1CCN(c2cc(Cl)ncn2)C(=O)C1,inactive
14,N#Cc1cccc(NC(=O)CCSc2ccc(Cl)cc2)c1,inactive
15,COc1ccc(C(=O)C(C)OC(=O)C2CCCN2)cc1 (stereo not drawn),inactive
16,O=C(Cc1ccsc1)N1CCC(c2nc(C3CCOCC3)no2)C1 (stereo not drawn),"inconclusive: 35.5 µM [inhibitor, partial curve, poor fit]"
17,O=C(Cc1c[nH]c2ccccc12)OCc1cccc(Cl)c1,inactive
18,O=C(Cn1c(-c2cccs2)cc2cc(F)ccc21)NCCCN1CCN(c2ccccc2F)CC1,"inconclusive: 35.5 µM [inhibitor, partial curve, poor fit]"
19,OCCC1CN(c2nc(-c3ccccc3)nc3c2CCC3)CCN1C1CCCC1 (stereo not drawn),inactive
20,CN(C)c1ccc(NC(=O)CN2C(=O)c3ccccc3Sc3ccc(C(=O)N4CCCC4)cc32)cc1,"inconclusive: 14.1 µM [inhibitor, partial curve, poor fit]"
21,Cc1ccc(NC(=O)CN2C(=O)CCn3nc(-c4cccn4C)cc32)c(Cl)c1,"inconclusive: 2.51 µM [inhibitor, partial curve, poor fit]"
22,COc1cc(/C=C(\C#N)c2nc3ccccc3[nH]2)cc(Br)c1OC,"inconclusive: 39.8 µM [inhibitor, single point]"

row,SMILES,Potency
1,CN(C)c1cccc(NC(=O)C2=NO[C@@H]3CN(c4cccnc4)C[C@H]23)c1,"inconclusive: 25.1 µM [inhibitor, single point]"
2,CCn1c(NCCO)nc2c(c1=O)C(C)(CC)Cc1ccccc1-2 (stereo not drawn),"inconclusive: 11.2 µM [inhibitor, partial curve, poor fit]"
3,COc1ccc(C(=O)N[C@@H]2CN(Cc3ccncc3)C[C@H]2CN(C)C)cc1F,"inconclusive: 28.2 µM [inhibitor, single point]"
4,CC(NC(=O)c1c2c(nc3ccccc13)C(=O)N(C1CCCCC1)C2)c1ccccc1 (stereo not drawn),"inconclusive: 28.2 µM [inhibitor, partial curve, poor fit]"
5,Cn1ncc(N2CCC(CNC(=O)c3cccc4ccnn34)C2)cc1=O (stereo not drawn),active: 28.2 µM
6,CCN(CC)CCCNC(=O)C(=O)Nc1ccc2cc[nH]c2c1,inactive
7,CN(Cc1cccnc1)c1ccc2ncc(Nc3cc(F)cc(N4CCOCC4)c3)n2n1,"inconclusive: 31.6 µM [inhibitor, single point]"
8,COc1ccc(-c2ccccc2C(=O)N(C(C)C)C(C)C)c2cccnc12,"inconclusive: 15.8 µM [inhibitor, single point]"
9,O=C(/C=C/c1ccc(-c2ccccc2Cl)o1)c1ccccc1,"inconclusive: 39.8 µM [inhibitor, single point]"
10,CCc1ccc(NC(=O)CN2CCSc3ccc(S(=O)(=O)N4CCCC4)cc32)cc1,"inconclusive: 31.6 µM [inhibitor, partial curve, poor fit]"
11,CCc1nnc(NC(=O)Cc2c(C)c3ccc(OC)c(OC)c3oc2=O)s1,"inconclusive: 1.78 µM [inhibitor, full curve, poor fit]"
12,COc1ccc(CCNc2nc(-c3ccc(F)cc3)cc(C(F)(F)F)n2)cc1OC,"inconclusive: 35.5 µM [inhibitor, partial curve, poor fit]"
13,CCn1cnnc1-c1nn(C)c2c1CN(C(=O)CCCC1C(=O)Nc3ccccc31)CC2 (stereo not drawn),"inconclusive: 15.8 µM [inhibitor, partial curve]"
14,O=C(CN1CCN(C(=O)c2nn(-c3ccccc3)c(=O)c3ccccc23)CC1)N1CCOCC1,inactive
15,CN1CCCC2(C1)CN(C)c1ccc(C(=O)Nc3ccccc3)cc12 (stereo not drawn),"inconclusive: 39.8 µM [inhibitor, partial curve, poor fit]"
16,CC(C)c1ccc(Nc2ncnc3c2nc2n3CCCC2)cc1,"inconclusive: 22.4 µM [inhibitor, single point]"
17,COc1ccc(C(=O)N2CCCC3(C2)NC(=O)N(Cc2cccc(Cl)c2)C3=O)cc1 (stereo not drawn),inactive
18,CC(=O)N1CCC(Oc2ccccc2-c2nc(C)no2)C1 (stereo not drawn),"inconclusive: 39.8 µM [inhibitor, partial curve, poor fit]"
19,COc1ccc(CC(=O)Nc2ccc([C@H]3OCC(=O)N(Cc4scnc4C)[C@@H]3CO)cc2)cc1,inactive
20,O=C(Nc1ccc(F)cc1)C1=C(N2CCCC2)c2ccccc2S1(=O)=O,inactive
21,CCC(=O)N1CCc2cc(Br)cc(S(=O)(=O)CCC(=O)N3CCN(c4ccc(OC)cc4)CC3)c21,inactive
